# Data published in PubChem BioAssay AID463173 (ICCB-Longwood Screening Facility, Harvard Medical School, 2010).
# Among all 52,000 compounds or so, about 1,700 (3.3%) were called active. Rule as the data show it: active = survival mostly below about 52% (no sharp cut-off); inactive = mostly above about 56%. Some of the results follow.
# Tested on: Wild type
# Assay: S. aureus survival, RN4220 and DeltatarO strains – OD600, teichoic acid synthesis inhibitors, primary screen (AID 463173)
# Settings: S. aureus RN4220 wild type/DeltatarO growth, OD600, 18 h, active compounds read low, screened at 18.75 µg/mL (by protocol)
row,Structure (SMILES),survival
1,Cc1ccc(CSCC(=O)NCc2ccc(F)cc2)cc1,inactive: 90%
2,CCOc1ccccc1Nc1nc(-c2cccc(Cl)c2)c2c(n1)-c1ccccc1OC2,inactive: 83%
3,CCc1nnc(SCC(=O)N(C)c2ccccc2)c2cc3sccc3n12,inactive: 66%
4,Cc1cccc(N2C(=O)CS/C2=N/NC(=O)c2cccc(Cl)c2)c1,inactive: 115%
5,CCOC(=O)c1cccc(NC(=O)CCc2c(C)nc3cc(-c4ccc(Cl)cc4)nn3c2C)c1,inactive: 73%
6,CCCn1c(=O)n(-c2cc(Cl)c(OC)cc2OC)c(=O)c2c3c(sc21)CN(C(C)=O)CC3,inactive: 64%
7,Cc1cc(C)c(Cn2c(CCNC(=O)c3ccco3)nc3ccccc32)c(C)c1,inactive: 92%
8,CCC(Sc1nccn1C)C(=O)Nc1cc(C)on1 (stereo unspecified),inactive: 110%
9,CCn1cc(CCC(=O)NCc2ccc(F)cc2)c2ccccc21,inactive: 77%
10,Cc1ccc([C@H]2Nc3ccc(S(=O)(=O)Nc4cccc(Cl)c4C)cc3[C@H]3C=CC[C@H]32)cc1,inactive: 71%
11,CCCCNS(=O)(=O)c1ccc(N)cc1,inactive: 104%
12,Cc1ccc(Nc2nnc(-c3ccc(C)c(S(=O)(=O)N4CCN(C)CC4)c3)c3ccccc23)c(C)c1,inactive: 93%
13,S=c1nc(Cc2cccs2)[nH]c2ccccc12,inactive: 117%
14,CCOc1ccccc1CNC(=O)C1CCN(C2=NS(=O)(=O)C(c3ccc(C)c(C)c3)=C2C)CC1,inactive: 82%
15,CC1CC(C)CN(C(=S)Nc2ccccc2)C1 (stereo unspecified),inactive: 125%
16,CCCN(C(=O)c1nn(-c2ccc(OC)c(Cl)c2)c(=O)c2c1c1ccccc1n2C)c1ccccc1F,inactive: 74%
17,Cc1ccccc1C(=O)NC1CCN(CC(=O)N2CCCCC2C)CC1 (stereo unspecified),inactive: 98%
18,COc1ccc(NC(=O)c2ccc3c(=O)n4nc(Nc5cc(C)ccc5C)sc4nc3c2)cc1,inactive: 136%
19,COc1ccc(OC)c(NC(=O)Cn2cnc3sc(C)c(S(=O)(=O)N4CCN(c5ccccc5OC)CC4)c3c2=O)c1,inactive: 80%

row,Structure (SMILES),survival
1,Cc1ccc(-c2cnc(NC(=O)CCC(=O)N3CCCCC3)n2C)cc1,inactive: 110%
2,COc1ccc(C(=O)N2CCC(c3nc4ccccc4o3)CC2)cc1,inactive: 81%
3,CCOc1ccc(C(=O)NCCc2csc(-c3ccc(C(F)(F)F)cc3)n2)cc1OCC,inactive: 73%
4,COc1cccc(C(C(=O)NCc2ccco2)N(C(=O)Cn2nnc3ccccc32)C2CC2)c1OC (stereo unspecified),inactive: 114%
5,CC(C)C(=O)Nc1cccc(C(=O)NCc2ccc3c(c2)OCO3)c1,inactive: 103%
6,COc1ccc(S(=O)(=O)c2c(Nc3ccc(F)cc3)sc(C(=O)c3ccc(C)cc3C)c2N)cc1,inactive: 124%
7,c1ccc(Cc2nnc(SCc3nc(-c4cccs4)no3)n2-c2ccccc2)cc1,inactive: 77%
8,Cc1ccccc1N1CCN(S(=O)(=O)c2nnc(NC(=O)c3ccccc3)s2)CC1,inactive: 48%
9,COc1ccc(C(=O)Nc2cc(C(C)C)c(O)c(S(=O)(=O)c3ccc(OC)cc3)c2C)cc1,inactive: 81%
10,CC(C)c1ccc2oc(-c3cc(NC(=O)c4cccs4)ccc3Cl)nc2c1,active: 7%
11,COc1cccc(NC(=O)c2sc3nc(C)c(C(=O)Nc4ccc(C)cc4C)c(-c4sccc4C)c3c2N)c1,inactive: 90%
12,O=c1c2oc3ccccc3c2n(Cc2cccc(F)c2)c(=O)n1Cc1ccco1,inactive: 62%
13,COc1ccccc1NC(=O)CCn1cnc2ccccc2c1=O,inactive: 76%
14,Cc1cccc(C)c1NC(=O)C(C)Sc1n[nH]c(-c2ccncc2)n1 (stereo unspecified),inactive: 116%
15,Cc1ccc(Cl)cc1N1CCN(C(=O)C2CCCN(S(=O)(=O)c3ccc(Br)s3)C2)CC1 (stereo unspecified),inactive: 132%
16,CCOc1ccc(NC(=O)CSc2nccn2-c2cccc(C)c2C)cc1,inactive: 146%
17,CC(=O)N1CCCc2cc(S(=O)(=O)N3CCCCC3)ccc21,inactive: 60%
18,CCOc1ccccc1CNC(=O)c1cc2c(=O)n(Cc3ccccc3)ccc2nc1C,inactive: 138%
19,CN(C(=O)c1cc2c(=O)oc3ccccc3c2s1)c1ccc(F)cc1,inactive: 80%

row,Structure (SMILES),survival
1,Cc1ccc2nc(-c3ccc(Cl)c(NC(=O)c4cccnc4)c3)oc2c1,inactive: 139%
2,CC1=NN(c2ccccc2)C(=O)C1C(=O)O (stereo unspecified),inactive: 104%
3,COc1ccc(S(=O)(=O)N2C3CCC2CC(NC(=O)C2CC2)C3)cc1 (stereo unspecified),inactive: 106%
4,CCCCn1c2ccc(F)cc2c2nnc(SCCN3CCCCC3)nc21,inactive: 139%
5,Cc1ccc(OCC(=O)NCC(=O)OCc2cc(=O)n3nc(C)sc3n2)cc1,inactive: 97%
6,CCOC(=O)C1CCN(S(=O)(=O)c2cc(-c3onc(C)c3C)ccc2OC)CC1,inactive: 60%
7,O=S(=O)(NCC(c1ccco1)S(=O)(=O)c1cccs1)c1ccc(F)c(C(F)(F)F)c1 (stereo unspecified),inactive: 32%
8,Cc1ccc(CNC(=O)c2nc(SCc3ccc(C)cc3)ncc2Cl)cc1,inactive: 116%
9,COc1ccc(CCNC(=O)CSc2ncc3c(n2)-c2cc(Cl)ccc2N(Cc2ccccc2)S3(=O)=O)cc1OC,inactive: 79%
10,CCc1ccccc1NC(=O)Cn1c(=O)c2cccn2c2ccc(F)cc21,inactive: 103%
11,CC(C)c1ccc(NC(=O)CSC2=Nc3ccccc3C3=NC(CC(=O)NCc4ccc(F)cc4)C(=O)N23)cc1 (stereo unspecified),inactive: 73%
12,COc1ccc(CNC(=O)c2ccc3c(c2)N(Cc2cccc(Cl)c2)C(=O)c2ccccc2S3)c(OC)c1,inactive: 84%
13,COCCCNC(=O)CCn1c(=O)c2ccccc2n(CC(=O)Nc2c(C)cc(C)cc2C)c1=O,inactive: 84%
14,CC1CN(S(=O)(=O)c2cccs2)C(C)CN1S(=O)(=O)c1cccs1 (stereo unspecified),inactive: 92%
15,CC(C)c1ccc(OC(=O)c2cc(-c3ccc4c(c3)OCCO4)on2)cc1,inactive: 46%
16,Cc1ccc(-n2c(=O)c3cccnc3n2CC(=O)Nc2cccc(C)c2C)cc1,inactive: 140%
17,Cc1cccn2c(Nc3ccccc3)c(-c3ccc(N4CCOCC4)cc3)nc12,inactive: 125%
18,CCOc1ccc(C(=O)Nc2nnc(SCc3cc(=O)c4cc(C)ccc4[nH]3)s2)cc1,inactive: 77%
